Measured values reported in publication PMC9911399, “Two distinct binding modes provide the RNA-binding protein RbFox with extraordinary sequence specificity”.
Changes are numbered by the printed parent chain; changes in the protein carry UniProt numbers. Some of the results follow.

T1: RBFOX1 RRM (Homo sapiens, UniProt Q9NWB1 109-208)
T1 sequence: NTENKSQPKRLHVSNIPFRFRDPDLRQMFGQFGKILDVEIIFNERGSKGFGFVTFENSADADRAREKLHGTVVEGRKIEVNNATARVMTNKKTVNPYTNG

B1: AUACAAA (DNA:RNA)
RNA: GGGAGACCGGAAUUCAGAUUGUCCAUACAAAUUAAAUCCCGUCGUAGCCACCA
DNA 1: CAATCTGAATTCCGGTCTCCC
DNA 2: TGGTGGCTACGACGGGATT
B2: GCGUACA (DNA:RNA)
RNA: B1 RNA with A25G, U26C, A27G, C28U, A30C
DNA 1: CAATCTGAATTCCGGTCTCCC
DNA 2: TGGTGGCTACGACGGGATT
B3: GCCUGGU (DNA:RNA)
RNA: GGGAGACCGGAAUUCAGAUUGUCCGCCUGGUUUAAAUCCCGUCGUAGCCACCA
DNA 1: CAATCTGAATTCCGGTCTCCC
DNA 2: TGGTGGCTACGACGGGATT
B4: ACCCUUU (DNA:RNA)
RNA: B3 RNA with G25A, U28C, G29U, G30U
DNA 1: CAATCTGAATTCCGGTCTCCC
DNA 2: TGGTGGCTACGACGGGATT
B5: AUCGCGG (DNA:RNA)
RNA: B1 RNA with A27C, C28G, A29C, A30G, A31G
DNA 1: CAATCTGAATTCCGGTCTCCC
DNA 2: TGGTGGCTACGACGGGATT
B6: AUGCGCA (DNA:RNA)
RNA: B1 RNA with A27G, A29G, A30C
DNA 1: CAATCTGAATTCCGGTCTCCC
DNA 2: TGGTGGCTACGACGGGATT
B7: CCCCAUG (DNA:RNA)
RNA: B1 RNA with A25C, U26C, A27C, A30U, A31G
DNA 1: CAATCTGAATTCCGGTCTCCC
DNA 2: TGGTGGCTACGACGGGATT
B8: CGGGAGA (DNA:RNA)
RNA: B1 RNA with A25C, U26G, A27G, C28G, A30G
DNA 1: CAATCTGAATTCCGGTCTCCC
DNA 2: TGGTGGCTACGACGGGATT
B9: CAAAGCA (DNA:RNA)
RNA: B1 RNA with A25C, U26A, C28A, A29G, A30C
DNA 1: CAATCTGAATTCCGGTCTCCC
DNA 2: TGGTGGCTACGACGGGATT
B10: AAACUAC (DNA:RNA)
RNA: B1 RNA with U26A, A29U, A31C
DNA 1: CAATCTGAATTCCGGTCTCCC
DNA 2: TGGTGGCTACGACGGGATT
B11: UUCUGGG (DNA:RNA)
RNA: B3 RNA with G25U, C26U, U31G
DNA 1: CAATCTGAATTCCGGTCTCCC
DNA 2: TGGTGGCTACGACGGGATT
B12: GGAACUU (DNA:RNA)
RNA: B3 RNA with C26G, C27A, U28A, G29C, G30U
DNA 1: CAATCTGAATTCCGGTCTCCC
DNA 2: TGGTGGCTACGACGGGATT
B13: CGCCAGC (DNA:RNA)
RNA: B1 RNA with A25C, U26G, A27C, A30G, A31C
DNA 1: CAATCTGAATTCCGGTCTCCC
DNA 2: TGGTGGCTACGACGGGATT
B14: GACGUCU (DNA:RNA)
RNA: B3 RNA with C26A, U28G, G29U, G30C
DNA 1: CAATCTGAATTCCGGTCTCCC
DNA 2: TGGTGGCTACGACGGGATT
B15: GAGGCAU (DNA:RNA)
RNA: B3 RNA with C26A, C27G, U28G, G29C, G30A
DNA 1: CAATCTGAATTCCGGTCTCCC
DNA 2: TGGTGGCTACGACGGGATT
B16: CGCCGCA (DNA:RNA)
RNA: B1 RNA with A25C, U26G, A27C, A29G, A30C
DNA 1: CAATCTGAATTCCGGTCTCCC
DNA 2: TGGTGGCTACGACGGGATT
B17: CUUUUUA (DNA:RNA)
RNA: B1 RNA with A25C, A27U, C28U, A29U, A30U
DNA 1: CAATCTGAATTCCGGTCTCCC
DNA 2: TGGTGGCTACGACGGGATT
B18: CAUUGGA (DNA:RNA)
RNA: B3 RNA with G25C, C26A, C27U, U31A
DNA 1: CAATCTGAATTCCGGTCTCCC
DNA 2: TGGTGGCTACGACGGGATT
B19: AUGUGAU (DNA:RNA)
RNA: B1 RNA with A27G, C28U, A29G, A31U
DNA 1: CAATCTGAATTCCGGTCTCCC
DNA 2: TGGTGGCTACGACGGGATT
B20: UCUAAUA (DNA:RNA)
RNA: B1 RNA with A25U, U26C, A27U, C28A, A30U
DNA 1: CAATCTGAATTCCGGTCTCCC
DNA 2: TGGTGGCTACGACGGGATT
B21: UAGGCCG (DNA:RNA)
RNA: GGGAGACCGGAAUUCAGAUUGUCCUAGGCCGUUAAAUCCCGUCGUAGCCACCA
DNA 1: CAATCTGAATTCCGGTCTCCC
DNA 2: TGGTGGCTACGACGGGATT
B22: AUUUGGU (DNA:RNA)
RNA: B3 RNA with G25A, C26U, C27U
DNA 1: CAATCTGAATTCCGGTCTCCC
DNA 2: TGGTGGCTACGACGGGATT
B23: CUUGGAA (DNA:RNA)
RNA: B1 RNA with A25C, A27U, C28G, A29G
DNA 1: CAATCTGAATTCCGGTCTCCC
DNA 2: TGGTGGCTACGACGGGATT
B24: CUUCGUU (DNA:RNA)
RNA: B1 RNA with A25C, A27U, A29G, A30U, A31U
DNA 1: CAATCTGAATTCCGGTCTCCC
DNA 2: TGGTGGCTACGACGGGATT
B25: AGAGCCU (DNA:RNA)
RNA: B21 RNA with U25A, A26G, G27A, G31U
DNA 1: CAATCTGAATTCCGGTCTCCC
DNA 2: TGGTGGCTACGACGGGATT
B26: AAUUUAA (DNA:RNA)
RNA: B1 RNA with U26A, A27U, C28U, A29U
DNA 1: CAATCTGAATTCCGGTCTCCC
DNA 2: TGGTGGCTACGACGGGATT
B27: AUUUGAC (DNA:RNA)
RNA: B1 RNA with A27U, C28U, A29G, A31C
DNA 1: CAATCTGAATTCCGGTCTCCC
DNA 2: TGGTGGCTACGACGGGATT
B28: CCCCAUU (DNA:RNA)
RNA: B3 RNA with G25C, U28C, G29A, G30U
DNA 1: CAATCTGAATTCCGGTCTCCC
DNA 2: TGGTGGCTACGACGGGATT
B29: GCGCAGG (DNA:RNA)
RNA: B3 RNA with C27G, U28C, G29A, U31G
DNA 1: CAATCTGAATTCCGGTCTCCC
DNA 2: TGGTGGCTACGACGGGATT
B30: CUUUGUU (DNA:RNA)
RNA: B3 RNA with G25C, C26U, C27U, G30U
DNA 1: CAATCTGAATTCCGGTCTCCC
DNA 2: TGGTGGCTACGACGGGATT
B31: ACAACGG (DNA:RNA)
RNA: B1 RNA with U26C, C28A, A29C, A30G, A31G
DNA 1: CAATCTGAATTCCGGTCTCCC
DNA 2: TGGTGGCTACGACGGGATT

molecular target: T1, RBFOX1 RRM; assay: EMSA; HiTS-Eq, 1 nM pool, 10 min; buffer printed only for the single-RNA assays: 10 mM Tris pH 7.5, 150 mM NaCl, 3.4 mM EDTA, 0.001% NP-40, 30 C; conditions: tags: His6 N-terminal (pET28a); label: 5' 32P
In short: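 Purified RbFox RRM, wild type or mutant, was incubated for 10 min in 50 µL with 1 nM of a 5′-radiolabelled RNA pool carrying 7 randomized nucleotides, whose flanks were annealed to DNA oligonucleotides, over a series of increasing protein concentrations. Unbound RNA was resolved on 8% native PAGE, cut out, reverse-transcribed, barcoded by PCR and sequenced on an Illumina HiSeq 2500. Relative association constants were derived from changes in read counts for each RNA species versus the control reaction and normalised to the cognate motif.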

First: B1
Second: B2
The binding signal of the first is lower: 0.00265 KA relative to UGCAUGU for the first, 0.00634 KA relative to UGCAUGU for the second.

Compared with B3, B4 is lower in binding signal: 0.0305 KA relative to UGCAUGU for the first, 0.00524 KA relative to UGCAUGU for the second.

First: B5
Second: B6
The binding signal of the first is lower: 0.00774 KA relative to UGCAUGU for the first, 0.0159 KA relative to UGCAUGU for the second.

First: B7
Second: B8
The binding signal of the first is lower: 0.0201 KA relative to UGCAUGU for the first, 0.0222 KA relative to UGCAUGU for the second.

Compared with B9, B10 is lower in binding signal: 0.00458 KA relative to UGCAUGU for the first, 0.00173 KA relative to UGCAUGU for the second.

Compared with B11, B12 is higher in binding signal: 0.00549 KA relative to UGCAUGU for the first, 0.0138 KA relative to UGCAUGU for the second.

First: B13
Second: B14
The binding signal of the first is lower: 0.00891 KA relative to UGCAUGU for the first, 0.0143 KA relative to UGCAUGU for the second.

First: B15
Second: B16
The binding signal of the first is higher: 0.0219 KA relative to UGCAUGU for the first, 0.0104 KA relative to UGCAUGU for the second.

First: B17
Second: B18
The binding signal of the first is higher: 0.00566 KA relative to UGCAUGU for the first, 0.00454 KA relative to UGCAUGU for the second.

First: B19
Second: B20
The binding signal of the first is higher: 0.0107 KA relative to UGCAUGU for the first, 0.00235 KA relative to UGCAUGU for the second.

Compared with B21, B22 is lower in binding signal: 0.015 KA relative to UGCAUGU for the first, 0.0136 KA relative to UGCAUGU for the second.

First: B23
Second: B24
The binding signal of the first is lower: 0.0119 KA relative to UGCAUGU for the first, 0.0135 KA relative to UGCAUGU for the second.

First: B25
Second: B26
The binding signal of the first is higher: 0.00804 KA relative to UGCAUGU for the first, 0.00442 KA relative to UGCAUGU for the second.

Compared with B27, B28 is lower in binding signal: 0.0117 KA relative to UGCAUGU for the first, 0.00211 KA relative to UGCAUGU for the second.

First: B29
Second: B30
The binding signal of the first is lower: 0.0122 KA relative to UGCAUGU for the first, 0.0183 KA relative to UGCAUGU for the second.

With B31 the binding signal was 0.00707 KA relative to UGCAUGU.
